In US10913773B2, “Bicyclic peptidyl inhibitor of tumor necrosis factor-alpha” (Ohio State Innovation Foundation, priority 2016, dated 2021):
At least one peptide structure holds a part that was inferred or is arguable (an end, a ring closure or a residue). For at least one compound, name, drawing or mass did not settle the structure. Starred links: 1 amine or outer side, 2 acyl side, 3 side chain; linkers in the order of their positions; H or OH if unused. Positions of bridges follow the written chain, without caps; N, C: chain ends. Non-standard residues stand in square brackets, D forms with d. Residues, ends and D or L forms follow the SMILES beside them. *: point of attachment. FITC = O=C1OC2(c3ccc(O)cc3Oc3cc(O)ccc32)c2ccc(NC(=S)*)cc21; Trimesoyl = O=C(c1cc(C(=O)[*:2])cc(C(=O)[*:3])c1)[*:1]; 2Nal = N[C@@H](Cc1ccc2ccccc2c1)C(=O)O; Phg = N[C@H](C(=O)O)c1ccccc1; dNle = CCCC[C@@H](N)C(=O)O; Nle = CCCC[C@H](N)C(=O)O; Dap = NC[C@H](N)C(=O)O

Target: T1, TNFα (Homo sapiens, UniProt P01375)
T1 construct: ybbR tag (13 aa) (N); made in house; host or cells: Escherichia coli
T1 sequence (P01375 77-233 limits assumed): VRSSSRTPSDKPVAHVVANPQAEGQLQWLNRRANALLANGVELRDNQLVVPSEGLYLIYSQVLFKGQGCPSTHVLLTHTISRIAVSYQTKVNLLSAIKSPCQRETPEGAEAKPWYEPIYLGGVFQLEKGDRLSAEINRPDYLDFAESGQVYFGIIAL
Assay: Fluorescence anisotropy (FA) binding of fluorescently labeled bicyclic peptides to TNFα
Settings: for Fold of Affinity Reduction: relative to NNNK(FITC)-tagged C1
Method: FITC-labeled bicyclic peptide (50 or 100 nM) were incubated with varying concentrations of TNFα (0-5 μM) in 30 mM HEPES, pH 7.4, 150 mM NaCl, and 2 mM magnesium acetate for 2 h. The FA values were measured on a Molecular Devices Spectramax M5 spectrofluorimeter, with excitation and emission wavelengths at 485 and 525 nm, respectively. Equilibrium dissociation constants (KD) were determined by plotting the FA values as a function of TNFα concentration and fitting the data to the following equation
[formula] where Y is the measured anisotropy at a given TNFα concentration x; L is the bicyclic peptide concentration; Qb/Qf is the correction fact for dye-protein interaction; Amax is the maximum anisotropy when all the peptides are bound to TNFα, while Amin is the minimum anisotropy. Competition experiments were performed by incubating 100 nM Asn-Asn-Asn-Lys(FITC)-labeled anticachexin C1 (Table 1), 2 μM of TNFα, and varying concentrations of unlabeled competitor peptide (0-20 μM) in the above buffer for 2 h. The FA values were plotted against the competitor peptide concentration to determine the IC50 values.
To identify residues significant for TNFα binding, each residue of anticachexin C1 (other than D-alanine at position-3, L-lysine at position-4, and L-2,3-diaminopropionic acid (Dap) at position-10) was individually replaced with an alanine (or D-alanine). To facilitate binding analysis by fluorescence anisotropy (FA), a tetrapeptide NNNK (SEQ ID NO: 1) was added to the C-terminus of each bicyclic peptide and the lysine side chain was labeled with fluorescein isothiocyanate (FITC) during solid-phase synthesis (Scheme 1). The three asparagine residues were added to improve the aqueous solubility of the bicyclic peptides. The bicyclic peptide was prepared by first synthesizing the full-length linear sequence on Rink amide resin using standard Fmoc/HBTU chemistry. The side chains of the two internal cyclization residues, L-lysine and Dap, were protected with monomethoxytrityl (Mmt) groups, whereas the C-terminal lysine was protected with an allyloxycarbonyl (Alloc) group. After removal of the N-terminal Fmoc group, a trimesic acid was coupled to the N-terminal amine using HBTU as the coupling agent. Next, the Mmt groups were selectively removed from the Lys and Dap side chains by 2% TFA and the peptide was cyclized by treatment with (benzotriazol-1-yloxy)tripyrrolidinophosphonium hexafluorophosphate (PyBOP). The Alloc group on the C-terminal lysine side chain was removed by treatment with Pd(PPh3)4 and the bicyclic peptide was selectively labeled at the C-terminal lysine by treating the resin with FITC. […] On the other hand, phenylglycine (Phg)-1 and glycine-7 play more minor roles in binding.

[1] = Table 4, FITC-labeled analogues modified at residues 7-9
[2] = Table 3, FITC-labeled analogues modified at residues 2, 5, 6

C[C@@H]1NC(=O)[C@@H](Cc2ccccc2)NC(=O)[C@H](Cc2ccc(O)cc2)NC(=O)[C@@H]2CCCCNC(=O)c3cc(cc(c3)C(=O)N[C@@H](c3ccccc3)C(=O)N[C@@H](Cc3ccc(O)cc3)C(=O)N[C@H](C)C(=O)N2)C(=O)NC[C@@H](C(=O)N[C@@H](CC(N)=O)C(=O)N[C@@H](CC(N)=O)C(=O)N[C@@H](CC(N)=O)C(=O)N[C@@H](CCCCNC(=S)Nc2ccc3c(c2)C(=O)OC32c3ccc(O)cc3Oc3cc(O)ccc32)C(N)=O)NC(=O)[C@H](Cc2c[nH]cn2)NC(=O)[C@@H](CCCCN)NC1=O [Gly7 → Ala] ([Phg]Y[dA]KY[dF]A[dK]H[Dap]NNNK(FITC)-NH2; linker N-4-10 via Trimesoyl)
Fold of Affinity Reduction: 1.5

CCCC[C@@H]1NC(=O)c2cc3cc(c2)C(=O)NC[C@@H](C(=O)N[C@@H](CCCCNC(=S)Nc2ccc4c(c2)C(=O)OC42c4ccc(O)cc4Oc4cc(O)ccc42)C(N)=O)NC(=O)[C@H](Cc2c[nH]cn2)NC(=O)[C@@H](CCCC)NC(=O)CNC(=O)[C@@H](Cc2c[nH]cn2)NC(=O)[C@H](Cc2ccc(O)cc2)NC(=O)[C@H](CCCCNC3=O)NC(=O)[C@@H](CO)NC(=O)[C@H](Cc2ccc(O)cc2)NC1=O [Compound C1-49] ([Nle]Y[dS]KY[dH]G[dNle]H[Dap]K(FITC)-NH2; linker N-4-10 via Trimesoyl)
Kd [1]: > 10000 nM

C[C@@H]1NC(=O)[C@@H](CCCCN)NC(=O)CNC(=O)[C@@H](Cc2ccccc2)NC(=O)[C@H](Cc2ccc(O)cc2)NC(=O)[C@@H]2CCCCNC(=O)c3cc(cc(c3)C(=O)N[C@@H](c3ccccc3)C(=O)N[C@@H](Cc3ccc(O)cc3)C(=O)N[C@H](C)C(=O)N2)C(=O)NC[C@@H](C(=O)N[C@@H](CC(N)=O)C(=O)N[C@@H](CC(N)=O)C(=O)N[C@@H](CC(N)=O)C(=O)N[C@@H](CCCCNC(=S)Nc2ccc3c(c2)C(=O)OC32c3ccc(O)cc3Oc3cc(O)ccc32)C(N)=O)NC1=O [His9 → Ala] ([Phg]Y[dA]KY[dF]G[dK]A[Dap]NNNK(FITC)-NH2; linker N-4-10 via Trimesoyl; C-terminus assumed)
Fold of Affinity Reduction: 5.0

CCCC[C@@H]1NC(=O)c2cc3cc(c2)C(=O)NC[C@@H](C(=O)NCCC(=O)NCCOCCOCC(=O)N[C@@H](CCCCNC(=S)Nc2ccc4c(c2)C(=O)OC42c4ccc(O)cc4Oc4cc(O)ccc42)C(N)=O)NC(=O)[C@H](Cc2c[nH]cn2)NC(=O)[C@@H](CCCCN)NC(=O)CNC(=O)[C@@H](Cc2c[nH]cn2)NC(=O)[C@H](Cc2c[nH]c4ccccc24)NC(=O)[C@H](CCCCNC3=O)NC(=O)[C@@H](CO)NC(=O)[C@H](Cc2ccc(O)cc2)NC1=O [Compound C1-59]
Kd (FITC-labeled peptide): 70 nM
Increase of TNFα binding affinity (fold) (relative to comparator analogue named in text): ~4 fold

CCCC[C@@H]1NC(=O)c2cc3cc(c2)C(=O)NC[C@@H](C(=O)N[C@@H](CCCCNC(=S)Nc2ccc4c(c2)C(=O)OC42c4ccc(O)cc4Oc4cc(O)ccc42)C(N)=O)NC(=O)[C@H](Cc2c[nH]cn2)NC(=O)[C@@H](CCCCN)NC(=O)CNC(=O)[C@@H](Cc2c[nH]cn2)NC(=O)[C@H](Cc2c[nH]c4ccccc24)NC(=O)[C@H](CCCCNC3=O)NC(=O)[C@@H](CO)NC(=O)[C@H](Cc2ccc3ccccc3c2)NC1=O [Compound C1-42] ([Nle][2Nal][dS]KW[dH]G[dK]H[Dap]K(FITC)-NH2; linker N-4-10 via Trimesoyl)
Kd [2]: > 10000 nM

C[C@@H]1NC(=O)c2cc3cc(c2)C(=O)NC[C@@H](C(=O)N[C@@H](CC(N)=O)C(=O)N[C@@H](CC(N)=O)C(=O)N[C@@H](CC(N)=O)C(=O)N[C@@H](CCCCNC(=S)Nc2ccc4c(c2)C(=O)OC42c4ccc(O)cc4Oc4cc(O)ccc42)C(N)=O)NC(=O)[C@H](Cc2c[nH]cn2)NC(=O)[C@@H](CCCCN)NC(=O)CNC(=O)[C@@H](Cc2ccccc2)NC(=O)[C@H](Cc2ccc(O)cc2)NC(=O)[C@H](CCCCNC3=O)NC(=O)[C@@H](C)NC(=O)[C@H](Cc2ccc(O)cc2)NC1=O [Phg1 → Ala] (AY[dA]KY[dF]G[dK]H[Dap]NNNK(FITC)-NH2; linker N-4-10 via Trimesoyl)
Fold of Affinity Reduction: 1.2

C[C@H]1NC(=O)[C@H](Cc2ccc(O)cc2)NC(=O)[C@@H]2CCCCNC(=O)c3cc(cc(c3)C(=O)N[C@@H](c3ccccc3)C(=O)N[C@@H](Cc3ccc(O)cc3)C(=O)N[C@H](C)C(=O)N2)C(=O)NC[C@@H](C(=O)N[C@@H](CC(N)=O)C(=O)N[C@@H](CC(N)=O)C(=O)N[C@@H](CC(N)=O)C(=O)N[C@@H](CCCCNC(=S)Nc2ccc3c(c2)C(=O)OC32c3ccc(O)cc3Oc3cc(O)ccc32)C(N)=O)NC(=O)[C@H](Cc2c[nH]cn2)NC(=O)[C@@H](CCCCN)NC(=O)CNC1=O [D-Phe6 → D-Ala] ([Phg]Y[dA]KY[dA]G[dK]H[Dap]NNNK(FITC)-NH2; linker N-4-10 via Trimesoyl)
Fold of Affinity Reduction: 4.0

CCCC[C@@H]1NC(=O)c2cc3cc(c2)C(=O)NC[C@@H](C(=O)N[C@@H](CCCCNC(=S)Nc2ccc4c(c2)C(=O)OC42c4ccc(O)cc4Oc4cc(O)ccc42)C(N)=O)NC(=O)[C@H](Cc2c[nH]cn2)NC(=O)[C@@H](CCCNC(=N)N)NC(=O)CNC(=O)[C@@H](Cc2c[nH]cn2)NC(=O)[C@H](Cc2ccc(O)cc2)NC(=O)[C@H](CCCCNC3=O)NC(=O)[C@@H](CO)NC(=O)[C@H](Cc2ccc(O)cc2)NC1=O [Compound C1-48] ([Nle]Y[dS]KY[dH]G[dR]H[Dap]K(FITC)-NH2; linker N-4-10 via Trimesoyl)
Kd [1]: > 10000 nM

CCCC[C@@H]1NC(=O)c2cc3cc(c2)C(=O)NC[C@@H](C(=O)N[C@@H](CCCCNC(=S)Nc2ccc4c(c2)C(=O)OC42c4ccc(O)cc4Oc4cc(O)ccc42)C(N)=O)NC(=O)[C@H](Cc2c[nH]cn2)NC(=O)[C@@H](CCCCN)NC(=O)CNC(=O)[C@@H](Cc2c[nH]cn2)NC(=O)[C@H](Cc2ccc(O)cc2)NC(=O)[C@H](CCCCNC3=O)NC(=O)[C@@H](CO)NC(=O)[C@H](Cc2ccc(O)cc2)NC1=O [Compound C1-30] ([Nle]Y[dS]KY[dH]G[dK]H[Dap]K(FITC)-NH2; linker N-4-10 via Trimesoyl)
Kd [2]: 760 ± 160 nM
Kd [1]: 760 ± 160 nM

C[C@H]1NC(=O)CNC(=O)[C@@H](Cc2ccccc2)NC(=O)[C@H](Cc2ccc(O)cc2)NC(=O)[C@@H]2CCCCNC(=O)c3cc(cc(c3)C(=O)N[C@@H](c3ccccc3)C(=O)N[C@@H](Cc3ccc(O)cc3)C(=O)N[C@H](C)C(=O)N2)C(=O)NC[C@@H](C(=O)N[C@@H](CC(N)=O)C(=O)N[C@@H](CC(N)=O)C(=O)N[C@@H](CC(N)=O)C(=O)N[C@@H](CCCCNC(=S)Nc2ccc3c(c2)C(=O)OC32c3ccc(O)cc3Oc3cc(O)ccc32)C(N)=O)NC(=O)[C@H](Cc2c[nH]cn2)NC1=O [D-Lys8 → D-Ala] ([Phg]Y[dA]KY[dF]G[dA]H[Dap]NNNK(FITC)-NH2; linker N-4-10 via Trimesoyl)
Fold of Affinity Reduction: 7.0

CCCC[C@@H]1NC(=O)c2cc3cc(c2)C(=O)NC[C@@H](C(=O)N[C@@H](CCCC)C(=O)NCCOCCOCC(=O)N[C@@H](CCCCNC(=S)Nc2ccc4c(c2)C(=O)OC42c4ccc(O)cc4Oc4cc(O)ccc42)C(N)=O)NC(=O)[C@H](Cc2c[nH]cn2)NC(=O)[C@@H](CCCCN)NC(=O)CNC(=O)[C@@H](Cc2c[nH]cn2)NC(=O)[C@H](Cc2c[nH]c4ccccc24)NC(=O)[C@H](CCCCNC3=O)NC(=O)[C@@H](CO)NC(=O)[C@H](Cc2ccc(O)cc2)NC1=O [Compound C1-58]
Kd (Table 5, residue 11 variants with Lys(FITC)): 1400 ± 500 nM
